The record followed here is paper PMC6919601, “Identification of Plasmodium dipeptidyl aminopeptidase allosteric inhibitors by high throughput screening” (PLoS ONE, 2019).

Among all 110,000 compounds or so, about 230 (0.21%) showed an effect of 50% or more. Some of the results follow.
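Note: 30 min substrate incubation versus DMSO and 10 µM JCP410 controls.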

DPAP1, sequence (Q8IIJ9 whole entry, looked up): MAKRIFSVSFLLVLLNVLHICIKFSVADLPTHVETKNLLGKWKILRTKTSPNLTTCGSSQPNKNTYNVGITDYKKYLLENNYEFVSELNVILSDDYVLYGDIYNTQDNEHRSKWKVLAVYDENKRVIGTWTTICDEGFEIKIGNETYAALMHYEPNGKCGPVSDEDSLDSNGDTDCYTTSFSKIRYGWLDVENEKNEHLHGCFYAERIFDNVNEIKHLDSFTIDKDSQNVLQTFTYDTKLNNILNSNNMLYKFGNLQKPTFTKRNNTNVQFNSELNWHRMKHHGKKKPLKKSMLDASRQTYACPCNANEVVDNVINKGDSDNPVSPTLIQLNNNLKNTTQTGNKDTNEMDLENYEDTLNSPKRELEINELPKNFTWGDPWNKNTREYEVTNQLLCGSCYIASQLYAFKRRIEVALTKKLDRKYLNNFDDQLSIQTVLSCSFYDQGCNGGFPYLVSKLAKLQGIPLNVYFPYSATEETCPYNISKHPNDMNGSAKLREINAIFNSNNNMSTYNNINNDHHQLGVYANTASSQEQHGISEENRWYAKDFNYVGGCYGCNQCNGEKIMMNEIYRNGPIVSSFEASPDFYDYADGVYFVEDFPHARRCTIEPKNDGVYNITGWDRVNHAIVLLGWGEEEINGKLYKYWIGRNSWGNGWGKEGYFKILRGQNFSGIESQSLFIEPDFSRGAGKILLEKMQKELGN

This assay has as its target DPAP1 (Plasmodium falciparum, UniProt Q8IIJ9). Kind of assay: primary screen, percent inhibition; read by cleavage of a fluorogenic dipeptide substrate; higher = more effect of the substance. More on the design: species or system P. falciparum D10 trophozoite lysates; single well.
Regarding `CC1(C)Cc2ccccc2-c2nc3n(c(=O)c21)CCCS3`, the “% Inhibition @ 10 uM” value was 0.392%.

Take `NC(=O)NC(c1ccccc1)c1ccc(F)cc1` (centres unmarked): the “% Inhibition @ 10 uM” value is recorded as -3.32%.

As for `CC1CCCCC1/N=C/c1c(O)[nH]c2ccccc12` (centres unmarked), the “% Inhibition @ 10 uM” value is reported as 4.74%.

For `Cn1c2c(c(=O)n(C)c1=O)C(c1ccc(Cl)cc1)C1=C(O)c3ccccc3C1=N2` (centres unmarked), the “% Inhibition @ 10 uM” value came to 6.08%.

Take `CCn1c2ccc(F)cc2c2nnc(S)nc21`: the “% Inhibition @ 10 uM” value stood at 32.8%.

As to `O=C(CSc1nc2c(sc3ccccc32)c(=O)n1CCCN1CCCC1)NCC1CCCO1` (centres unmarked), the “% Inhibition @ 10 uM” value was found to be 13.3%.

On to `CC(C)CNC(=O)CCn1cnc2onc(-c3ccc(F)cc3)c2c1=O`, for which the “% Inhibition @ 10 uM” value is recorded as -7.65%.

With `Cn1c2ccccc2c2cnn(CC(=O)NCc3ccc4c(c3)OCO4)c(=O)c21`, the “% Inhibition @ 10 uM” value was -5.49%.

Take `CCOC(=O)C1=CN(C)C=C(C(=O)OCC)C1c1ccccc1Br`: the “% Inhibition @ 10 uM” value worked out at 6.48%.

Turning to `N#C/C(=C\c1cccc2ccccc12)C(N)=O`, the “% Inhibition @ 10 uM” value turned out to be 3.53%.

As for `Cn1c2ccccc2c2cnn(CC(=O)NCc3ccccn3)c(=O)c21`, the “% Inhibition @ 10 uM” value is 2.99%.

For the compound `Cc1ccc2[nH]c3c(c2c1)CCCC3NC(N)=O` (centres unmarked), the “% Inhibition @ 10 uM” value stood at 3.05%.

Turning to `COc1ccc(S(=O)(=O)N(C)C2CCCCC2)cc1-c1nnc2c3ccccc3c(C)nn12`, the “% Inhibition @ 10 uM” value is listed as -1.11%.

On to `CCOc1ccccc1C1SCC(=O)Nc2c1c(O)nn2C1CCCC1` (centres unmarked), for which the “% Inhibition @ 10 uM” value was -0.45%.

For `CN1C(=O)CC(C(=O)Nc2ccccc2F)S/C1=N\c1cccc(F)c1` (centres unmarked), the “% Inhibition @ 10 uM” value is on record as 5.03%.

Regarding `Cc1cc(C)c2c(=O)n(CC(=O)NCCCSC3CCCCC3)sc2n1`, the “% Inhibition @ 10 uM” value was determined as 17.9%.

`CCCOc1ccc(Oc2nc(NCC)cc(NC(C)(C)C)n2)nn1`: the “% Inhibition @ 10 uM” value is reported as -4.85%.

For `Cc1ccc(C(C)C)c(OCCOCCN2CCNCC2)c1`, the “% Inhibition @ 10 uM” value is listed as -0.279%.

As to `CCN1C(=O)/C(=C/c2ccc(O)cc2)S/C1=N/c1ccc(OC)cc1`, the “% Inhibition @ 10 uM” value came out at 16.9%.

Turning to `CC(C)N(Cc1ccccc1)C(=O)[C@H]1[C@@H]2C[C@@H]3[C@H]1C(=O)O[C@@H]3C2`, the “% Inhibition @ 10 uM” value was determined as 5.35%.

As to `OC1CCCCC1N1CCC(c2ccccc2)C1` (centres unmarked), the “% Inhibition @ 10 uM” value was -2.91%.

On to `CCNC(=O)C1CCCN(S(=O)(=O)N2CCCCC2)C1` (centres unmarked), for which the “% Inhibition @ 10 uM” value is reported as 0.335%.

`Cc1csc(NC(=O)c2cnn(-c3ccccc3)c2-n2cccc2)n1`: the “% Inhibition @ 10 uM” value was determined as 4.17%.

On to `Cc1ccc(N(CC(=O)N2CCN(C(c3ccccc3)c3ccccc3)CC2)S(C)(=O)=O)c(C)c1`, for which the “% Inhibition @ 10 uM” value was 6.4%.

Consider `Cc1cc(OCC(=O)Nc2ccc(C(N)=O)cc2)c(C(C)C)cc1Br`, for which the “% Inhibition @ 10 uM” value was determined as 1.94%.

Regarding `CCN(CCN(C)C)Cc1cc(F)ccc1F`, the “% Inhibition @ 10 uM” value is 1.9%.

For the compound `Cc1ccc(C(CC(=O)NCc2ccco2)N2Cc3ccccc3C2=O)cc1` (centres unmarked), the “% Inhibition @ 10 uM” value was found to be 5.08%.

As for `COC(=O)c1sc(NC(=O)c2ccccc2Cl)nc1C`, the “% Inhibition @ 10 uM” value was determined as 2.17%.

Regarding `COc1ccc(Nc2nc(N)nc(CSc3ncccn3)n2)cc1`, the “% Inhibition @ 10 uM” value is given as -0.872%.

With `Cc1ccc(CS(=O)Cc2ccc(C(=O)NCc3ccco3)o2)cc1` (centres unmarked), the “% Inhibition @ 10 uM” value worked out at 3.36%.

Consider `Cc1ccc(C(C)C)c(OCc2nc3c4cnn(-c5ccccc5)c4ncn3n2)c1`, for which the “% Inhibition @ 10 uM” value was -3.96%.

Regarding `CC1CC(=O)C2=C(C1)OC(N)=C(C#N)C21C(=O)Nc2ccc(Br)cc21` (centres unmarked), the “% Inhibition @ 10 uM” value was -4.87%.

As to `CN1CCCN(C(=O)/C(=C/c2cccs2)NC(=O)c2ccccc2)CC1`, the “% Inhibition @ 10 uM” value is reported as -0.996%.

As to `CN(C)c1ccc(C2CC(c3ccccc3)=NN2C(=O)c2cccs2)cc1` (centres unmarked), the “% Inhibition @ 10 uM” value is -4.59%.

Take `CCCC/C(=N/O)c1c(C)[nH]c2ccccc12`: the “% Inhibition @ 10 uM” value worked out at 2.62%.

In the case of `CSC1=NSC2=NC(=O)/C(=C\c3ccc(C(=O)O)cc3)C(=N)N12`, the “% Inhibition @ 10 uM” value was 1.83%.

`Cc1cc(C)c(C#N)c(SCC(=O)c2ccc(Br)cc2)n1`: the “% Inhibition @ 10 uM” value is recorded as 0.385%.

For `CCOc1cc2c(cc1OC)C(c1ccc(F)c(F)c1)NCC2` (centres unmarked), the “% Inhibition @ 10 uM” value worked out at 0.26%.

In the case of `COc1ccccc1N1CCN(C(=O)c2cccc(C(=O)N3CCN(c4ccccc4OC)CC3)c2)CC1`, the “% Inhibition @ 10 uM” value turned out to be 0.0792%.

For `COc1ccc(OCC(O)CN(CCO)CCO)cc1` (centres unmarked), the “% Inhibition @ 10 uM” value stood at 1.31%.

In the case of `C=CCOc1cccc(-c2nc(O)c3c(n2)Oc2ccccc2C3)c1`, the “% Inhibition @ 10 uM” value was -2.84%.

As to `CCC(C)c1ccc(NC(=O)c2ccccc2OC)cc1` (centres unmarked), the “% Inhibition @ 10 uM” value was 12.7%.

With `C#CCOc1cc(Br)c(/C=C2\SC(=O)N(C)C2=O)cc1OC`, the “% Inhibition @ 10 uM” value is -3.06%.

As to `N#CC1=C(N)OC2=C(C(=O)CC(c3ccccc3)C2)C1c1ccc2ccccc2c1` (centres unmarked), the “% Inhibition @ 10 uM” value is given as 15.8%.

Take `CC1=C(C(=O)OCCc2ccccc2)C(c2ccc(Cl)c(Cl)c2)NC(=O)N1` (centres unmarked): the “% Inhibition @ 10 uM” value is -2.87%.

With `Cc1ccccc1N1CCN(Cc2c(C)n(C)n(-c3ccccc3)c2=O)CC1`, the “% Inhibition @ 10 uM” value is 3.35%.

Turning to `Cn1cnc2nc(Cl)nc(NCCO)c21`, the “% Inhibition @ 10 uM” value stood at 5.37%.

`CCN(c1ccccc1)S(=O)(=O)c1cc([N+](=O)[O-])ccc1N`: the “% Inhibition @ 10 uM” value is reported as -0.239%.

On to `Cc1cc(C)nc(NS(=O)(=O)c2ccc(NC(=S)NC(=O)C34CC5CC(CC(C5)C3)C4)cc2)n1`, for which the “% Inhibition @ 10 uM” value is on record as -8.3%.

Regarding `CCN(Cc1nc(-c2ccc(OC)c(OC)c2)no1)S(=O)(=O)c1ccc(Cl)cc1`, the “% Inhibition @ 10 uM” value is on record as 0.758%.
